# Laboratory results reported in the supplement of paper PMC8728848.
# The list shows a part of the results.
# B1: B725 (Bifidobacterium sp) (protein)
# chain: MNNTTRAVIATAAIGALLIPLAGCGNTTTSSGKTELTVWSWDASIDRAAKSFMKANPDITVKVSNVGSTEETYTALNNAAQAGSGLPDVTLIEYLAIPQFVHSDTLMDLSKVYNTAKLKDTFTPGTWNSVNINGGLYAMPADSGPMAYFYDKDVFDKAGISEPPTTWDEFYEDAKKIRATGSYITSDSGDAGLFNAMMWAMGGHAYKLNDDKLTINIAKDKGAQRFMDLWQKMRDEDLIDVHTKTWTDDWMKSLGDGSIASLISGAWMANNLLQGVPQATGKFRVALLPTIDGTPINGEYGGSGLAITKKIPDGKLDAAKKFVEYVTTNDEGIDARVSNGSFPATTKTLNQKDFLAKTTLRNTDGSDNEFFGGQKYNEIFSQAAKDVTGKWEFLPFEPYARSVYNDNMGSFFAGKTSFRTAADNWQKALKDYAKDQGFTVQ
# How the values were obtained:
# Test in all cases: glycan array binding signal (z-score within array); higher = stronger binding
# Conditions in all cases: glycan notation: IUPAC condensed, linker removed
# [1] = target: GlcNAc(a1-4)Gal(b1-3)GlcNAc
# How it was run: (§1)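 Negative Z-scores can be read as non-binding. The Z-score is calculated within each array and then averaged across arrays of one protein sequence at different concentrations or buffers and across linkers. Arrays, 3228 in all, were curated from the Consortium for Functional Glycomics database and kept only where the protein sequence was available.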
# [2] = target: GlcNAc(a1-4)Gal(b1-4)GalNAc
# How it was run: as §1
# [3] = target: GlcNAc(a1-4)Gal(b1-4)GlcNAc
# How it was run: as §1
# [4] = target: GlcNAc(a1-4)Gal(b1-4)GlcNAc(b1-3)Gal(b1-4)Glc
# How it was run: as §1
# [5] = target: GlcNAc(a1-4)Gal(b1-4)GlcNAc(b1-3)Gal(b1-4)GlcNAc
# How it was run: as §1
# [6] = target: GlcNAc(a1-4)Gal(b1-4)GlcNAc(b1-3)Gal(b1-4)GlcNAc(b1-3)Gal(b1-4)GlcNAc
# How it was run: as §1
# [7] = target: GlcNAc(a1-4)Gal(b1-4)GlcNAc(b1-3)Gal(b1-4)[Fuc(a1-3)]GlcNAc(b1-3)Gal(b1-4)[Fuc(a1-3)]GlcNAc
# How it was run: as §1
# [8] = target: GlcNAc(a1-6)Gal(b1-4)GlcNAc
# How it was run: as §1
# [9] = target: GlcNAc(b1-2)Gal(b1-3)GalNAc
# How it was run: as §1
# [10] = target: GlcNAc(b1-2)Man(a1-3)[GlcNAc(b1-2)Man(a1-6)]Man(b1-4)GlcNAc(b1-4)GlcNAc
# How it was run: as §1
# [11] = target: GlcNAc(b1-2)Man(a1-3)[GlcNAc(b1-2)Man(a1-6)]Man(b1-4)GlcNAc(b1-4)[Fuc(a1-6)]GlcNAc
# How it was run: as §1
# [12] = target: GlcNAc(b1-2)Man(a1-3)[GlcNAc(b1-4)][GlcNAc(b1-2)Man(a1-6)]Man(b1-4)GlcNAc(b1-4)GlcNAc
# How it was run: as §1
# [13] = target: GlcNAc(b1-2)Man(a1-3)[GlcNAc(b1-4)][GlcNAc(b1-2)Man(a1-6)]Man(b1-4)GlcNAc(b1-4)[Fuc(a1-6)]GlcNAc
# How it was run: as §1
# [14] = target: GlcNAc(b1-2)[GlcNAc(b1-4)]Man(a1-3)[GlcNAc(b1-2)Man(a1-6)]Man(b1-4)GlcNAc(b1-4)GlcNAc
# How it was run: as §1
# [15] = target: GlcNAc(b1-2)[GlcNAc(b1-4)]Man(a1-3)[GlcNAc(b1-4)][GlcNAc(b1-2)Man(a1-6)]Man(b1-4)GlcNAc(b1-4)GlcNAc
# How it was run: as §1
# [16] = target: GlcNAc(b1-2)[GlcNAc(b1-4)]Man(a1-3)[GlcNAc(b1-4)][GlcNAc(b1-2)[GlcNAc(b1-6)]Man(a1-6)]Man(b1-4)GlcNAc(b1-4)GlcNAc
# How it was run: as §1
# [17] = target: GlcNAc(b1-2)[GlcNAc(b1-4)]Man(a1-3)[GlcNAc(b1-4)][GlcNAc(b1-2)[GlcNAc(b1-6)]Man(a1-6)]Man(b1-4)GlcNAc(b1-4)[Fuc(a1-6)]GlcNAc
# How it was run: as §1
# [18] = target: GlcNAc(b1-2)[GlcNAc(b1-6)]Man(a1-6)[GlcNAc(b1-2)Man(a1-3)]Man(b1-4)GlcNAc(b1-4)GlcNAc
# How it was run: as §1
# [19] = target: GlcNAc(b1-2)[GlcNAc(b1-6)]Man(a1-6)[GlcNAc(b1-2)Man(a1-3)]Man(b1-4)GlcNAc(b1-4)[Fuc(a1-6)]GlcNAc
# How it was run: as §1
# [20] = target: GlcNAc(b1-2)[GlcNAc(b1-6)]Man(a1-6)[GlcNAc(b1-4)][GlcNAc(b1-2)Man(a1-3)]Man(b1-4)GlcNAc(b1-4)GlcNAc
# How it was run: as §1
# [21] = target: GlcNAc(b1-3)Fuc
# How it was run: as §1
# [22] = target: GlcNAc(b1-3)Gal
# How it was run: as §1
# [23] = target: GlcNAc(b1-3)Gal(b1-3)GalNAc
# How it was run: as §1
# [24] = target: GlcNAc(b1-3)Gal(b1-4)Glc
# How it was run: as §1
# [25] = target: GlcNAc(b1-3)Gal(b1-4)GlcNAc
# How it was run: as §1
# [26] = target: GlcNAc(b1-3)Gal(b1-4)GlcNAc(b1-2)Man(a1-3)[GlcNAc(b1-3)Gal(b1-4)GlcNAc(b1-2)Man(a1-6)]Man(b1-4)GlcNAc(b1-4)GlcNAc
# How it was run: as §1
# [27] = target: GlcNAc(b1-3)Gal(b1-4)GlcNAc(b1-2)Man(a1-3)[GlcNAc(b1-3)Gal(b1-4)GlcNAc(b1-2)Man(a1-6)]Man(b1-4)GlcNAc(b1-4)[Fuc(a1-6)]GlcNAc
# How it was run: as §1
# [28] = target: GlcNAc(b1-3)Gal(b1-4)GlcNAc(b1-2)[GlcNAc(b1-3)Gal(b1-4)GlcNAc(b1-6)]Man(a1-6)[GlcNAc(b1-3)Gal(b1-4)GlcNAc(b1-2)Man(a1-3)]Man(b1-4)GlcNAc(b1-4)GlcNAc
# How it was run: as §1
# [29] = target: GlcNAc(b1-3)Gal(b1-4)GlcNAc(b1-3)Gal(b1-4)GlcNAc
# How it was run: as §1
# [30] = target: GlcNAc(b1-3)Gal(b1-4)GlcNAc(b1-3)Gal(b1-4)GlcNAc(b1-2)Man(a1-3)[GlcNAc(b1-3)Gal(b1-4)GlcNAc(b1-3)Gal(b1-4)GlcNAc(b1-2)Man(a1-6)]Man(b1-4)GlcNAc(b1-4)GlcNAc
# How it was run: as §1
# [31] = target: GlcNAc(b1-3)Gal(b1-4)GlcNAc(b1-3)Gal(b1-4)GlcNAc(b1-2)Man(a1-3)[GlcNAc(b1-3)Gal(b1-4)GlcNAc(b1-3)Gal(b1-4)GlcNAc(b1-2)Man(a1-6)]Man(b1-4)GlcNAc(b1-4)[Fuc(a1-6)]GlcNAc
# How it was run: as §1
# [32] = target: GlcNAc(b1-3)Gal(b1-4)GlcNAc(b1-3)Gal(b1-4)GlcNAc(b1-2)[GlcNAc(b1-3)Gal(b1-4)GlcNAc(b1-3)Gal(b1-4)GlcNAc(b1-6)]Man(a1-6)[GlcNAc(b1-3)Gal(b1-4)GlcNAc(b1-3)Gal(b1-4)GlcNAc(b1-2)Man(a1-3)]Man(b1-4)GlcNAc(b1-4)[Fuc(a1-6)]GlcNAc
# How it was run: as §1
# [33] = target: GlcNAc(b1-3)Gal(b1-4)GlcNAc(b1-3)Gal(b1-4)GlcNAc(b1-3)Gal(b1-4)GlcNAc(b1-2)Man(a1-3)[GlcNAc(b1-3)Gal(b1-4)GlcNAc(b1-3)Gal(b1-4)GlcNAc(b1-3)Gal(b1-4)GlcNAc(b1-2)Man(a1-6)]Man(b1-4)GlcNAc(b1-4)GlcNAc
# How it was run: as §1
# [34] = target: GlcNAc(b1-3)Gal(b1-4)GlcNAc(b1-3)Gal(b1-4)GlcNAc(b1-3)Gal(b1-4)GlcNAc(b1-2)Man(a1-3)[GlcNAc(b1-3)Gal(b1-4)GlcNAc(b1-3)Gal(b1-4)GlcNAc(b1-3)Gal(b1-4)GlcNAc(b1-2)Man(a1-6)]Man(b1-4)GlcNAc(b1-4)[Fuc(a1-6)]GlcNAc
# How it was run: as §1
# [35] = target: GlcNAc(b1-3)Gal(b1-4)GlcNAc(b1-3)Gal(b1-4)GlcNAc(b1-3)Gal(b1-4)GlcNAc(b1-2)[GlcNAc(b1-3)Gal(b1-4)GlcNAc(b1-3)Gal(b1-4)GlcNAc(b1-3)Gal(b1-4)GlcNAc(b1-6)]Man(a1-6)[GlcNAc(b1-3)Gal(b1-4)GlcNAc(b1-3)Gal(b1-4)GlcNAc(b1-3)Gal(b1-4)GlcNAc(b1-2)Man(a1-3)]Man(b1-4)GlcNAc(b1-4)[Fuc(a1-6)]GlcNAc
# How it was run: as §1
# [36] = target: GlcNAc(b1-3)Gal(b1-4)GlcNAc(b1-3)Gal(b1-4)GlcNAc(b1-3)Gal(b1-4)GlcNAc(b1-3)Gal(b1-4)GlcNAc(b1-2)Man(a1-3)[GlcNAc(b1-3)Gal(b1-4)GlcNAc(b1-3)Gal(b1-4)GlcNAc(b1-3)Gal(b1-4)GlcNAc(b1-3)Gal(b1-4)GlcNAc(b1-2)Man(a1-6)]Man(b1-4)GlcNAc(b1-4)GlcNAc
# How it was run: as §1
# [37] = target: GlcNAc(b1-3)Gal(b1-4)GlcNAc(b1-3)Gal(b1-4)GlcNAc(b1-3)Gal(b1-4)GlcNAc(b1-3)Gal(b1-4)GlcNAc(b1-2)Man(a1-3)[GlcNAc(b1-3)Gal(b1-4)GlcNAc(b1-3)Gal(b1-4)GlcNAc(b1-3)Gal(b1-4)GlcNAc(b1-3)Gal(b1-4)GlcNAc(b1-2)Man(a1-6)]Man(b1-4)GlcNAc(b1-4)[Fuc(a1-6)]GlcNAc
# How it was run: as §1
# [38] = target: GlcNAc(b1-3)Gal(b1-4)GlcNAc(b1-3)Gal(b1-4)GlcNAc(b1-3)Gal(b1-4)GlcNAc(b1-3)Gal(b1-4)GlcNAc(b1-2)[GlcNAc(b1-3)Gal(b1-4)GlcNAc(b1-3)Gal(b1-4)GlcNAc(b1-3)Gal(b1-4)GlcNAc(b1-3)Gal(b1-4)GlcNAc(b1-6)]Man(a1-6)[GlcNAc(b1-3)Gal(b1-4)GlcNAc(b1-3)Gal(b1-4)GlcNAc(b1-3)Gal(b1-4)GlcNAc(b1-3)Gal(b1-4)GlcNAc(b1-2)Man(a1-3)]Man(b1-4)GlcNAc(b1-4)[Fuc(a1-6)]GlcNAc
# How it was run: as §1
binder,measurement,setting,value
B1,glycan array binding signal (z-score),[1],-0.213
same,glycan array binding signal (z-score),[2],-0.225
same,glycan array binding signal (z-score),[3],-0.209
same,glycan array binding signal (z-score),[4],-0.211
same,glycan array binding signal (z-score),[5],-0.217
same,glycan array binding signal (z-score),[6],-0.201
same,glycan array binding signal (z-score),[7],-0.174
same,glycan array binding signal (z-score),[8],-0.215
same,glycan array binding signal (z-score),[9],-0.223
same,glycan array binding signal (z-score),[10],-0.223
same,glycan array binding signal (z-score),[11],-0.224
same,glycan array binding signal (z-score),[12],-0.221
same,glycan array binding signal (z-score),[13],-0.23
same,glycan array binding signal (z-score),[14],-0.201
same,glycan array binding signal (z-score),[15],-0.219
same,glycan array binding signal (z-score),[16],-0.225
same,glycan array binding signal (z-score),[17],-0.22
same,glycan array binding signal (z-score),[18],-0.222
same,glycan array binding signal (z-score),[19],-0.211
same,glycan array binding signal (z-score),[20],-0.24
same,glycan array binding signal (z-score),[21],-0.207
same,glycan array binding signal (z-score),[22],-0.227
same,glycan array binding signal (z-score),[23],-0.202
same,glycan array binding signal (z-score),[24],-0.222
same,glycan array binding signal (z-score),[25],-0.216
same,glycan array binding signal (z-score),[26],-0.199
same,glycan array binding signal (z-score),[27],-0.131
same,glycan array binding signal (z-score),[28],-0.2
same,glycan array binding signal (z-score),[29],0.622
same,glycan array binding signal (z-score),[30],-0.178
same,glycan array binding signal (z-score),[31],-0.216
same,glycan array binding signal (z-score),[32],-0.203
same,glycan array binding signal (z-score),[33],-0.204
same,glycan array binding signal (z-score),[34],-0.181
same,glycan array binding signal (z-score),[35],-0.196
same,glycan array binding signal (z-score),[36],-0.203
same,glycan array binding signal (z-score),[37],0.138
same,glycan array binding signal (z-score),[38],0.704
